# Test results: PubChem BioAssay (NCATS)
# The list shows a part of the results. These are further read-outs of the screen, such as a control signal, another cell line or another target. No call is given for them. Most of these compounds were active or inconclusive in the main read-out, so they are no random draw. The note in brackets gives the kind of curve behind each potency; many fits are weak.
# Test: qHTS Assay for Lipid Storage Modulators (AID 1519)
# Settings: Drosophila S3 cells, BODIPY lipid droplet/cell ratio, laser cytometry; measured here: lipid (BODIPY) channel AC50; cells loaded with oleic acid
# How it was run: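 Cells seeded at 5,000 per well were treated with compounds over a concentration series and loaded with oleic acid (400 uM, as added). Lipid droplet fluorescence (488 nm excitation, 500-530 nm channel) was read by laser-scanning cytometry and normalized to 20 uM Triacsin C.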
# Tags describe the fitted curve by direction and shape.
row,SMILES,AC50
1,CN(C)C(=O)c1ccc(-c2ccc3ncnc(NCCN4CCOCC4)c3c2)cc1,"3980 nM [rising, full curve]"
2,CC(C)NC(=O)N1CCCC2(CCN(C(=O)c3csnn3)CC2)C1,"5.62 nM [rising, full curve, poor fit]"
3,Cc1ccccc1-c1ccc2ncnc(-n3ccnc3)c2c1,"1580 nM [rising, partial curve]"
4,COc1ccc(CNc2ccnc(-c3cccc(C#N)c3)n2)c(OC)c1,"6310 nM [rising, partial curve, poor fit]"
5,CNc1ncnc2ccc(-c3cccc(OC)c3)cc12,"39800 nM [falling, single point]"
6,N#CCCn1c(=O)c(CCc2ccccc2)nc2cnc(Oc3cccc(Cl)c3)nc21,"355 nM [rising, partial curve]"
7,COc1cc(OC)c2c(OC)c(-c3ccc4c(c3)OCO4)c(=O)oc2c1,"562 nM [rising, full curve]"
8,COc1ccccc1-c1nc(NCCN2CCOCC2)c2ccccc2n1,"3160 nM [rising, full curve]"
9,COc1ccccc1CNc1ncncc1-c1cccc(NS(C)(=O)=O)c1,"8910 nM [rising, full curve]"
10,CCNc1ncc2nc(-c3cc(F)cc(F)c3)c(=O)n(CCOC)c2n1,"355 nM [rising, full curve]"

# Same assay, conditions: Drosophila S3 cells, BODIPY lipid droplet/cell ratio, laser cytometry; measured here: lipid channel max response; cells loaded with oleic acid
row,SMILES,max response
1,CC[N+](CC)(CC)CC(=O)Nc1c(C)cccc1C,57.6%
2,O=c1c(-c2cccs2)nc2cnc(N3CCNCC3)nc2n1Cc1cccs1,-71.9%
3,O=C(c1ccncc1)N1CCC[C@@]2(CCN(c3ccccc3)C2)C1,41.7%
4,COc1ncc2nc(-c3cccs3)c(=O)n(Cc3ccc(F)cc3)c2n1,40.9%
5,COc1ccc(C(=O)N2CCC[C@@]3(CCN(C(=O)Nc4cccc(F)c4)C3)C2)cc1,45.7%
6,O=c1c(-c2ccc(F)cc2)nc2cnc(Nc3ccccc3)nc2n1C1CC1,36.8%
7,Cn1cc(-c2nc3cncnc3n(C3CC3)c2=O)c2ccccc21,35.3%
8,COc1cc(/C=C\c2ccc(OC)cc2OC)cc(OC)c1,114%
9,Cn1c(=O)c(CCc2ccccc2)nc2cnc(Oc3ccccc3)nc21,22.6%
10,COc1ccc(Oc2ncc3nc(CCc4ccccc4)c(=O)n(CCC#N)c3n2)cc1,4.68%
11,Cc1cnc(CNc2ccnc(-c3cccc(NS(C)(=O)=O)c3)n2)cn1,35.2%
12,Oc1ccc(/C=C\c2cc(O)cc(O)c2)cc1,88.9%
13,O=C(c1ccc(F)cc1)C1CCN(CCCCc2ccccc2)CC1,96.7%
14,N#CCCn1c(=O)c(CCc2ccccc2)nc2cnc(Oc3ccccc3)nc21,36.5%
15,COc1cccc(Cn2c(=O)c(C)nc3cnc(N4CCOCC4)nc32)c1,43.1%
16,O=C(Nc1ccccc1)[C@@]12C[C@@H]1/C(=N/O)c1ccccc1O2,110%
17,COCCn1c(=O)c(CCc2ccccc2)nc2cnc(N3CCNCC3)nc21,50.1%
18,CN1CCN(c2nc(-c3ccccc3C(F)(F)F)nc3ccccc23)CC1,25.4%
19,Cc1noc(C)c1C(=O)N1CCC2(CCCN(C(c3ccccc3)c3ccccc3)C2)CC1,12.2%
20,CN(C)C(=O)c1ccc(-c2nc(N3CCOCC3)c3ccccc3n2)cc1,21%

row,SMILES,max response
1,CN(Cc1ccco1)c1cc(-c2ccccc2C(F)(F)F)ncn1,38.8%
2,Nc1ncnc2c1nc(Br)n2C1OC(CO)C(O)C1O (stereo not given),40.5%
3,CS(=O)(=O)N1CCC2(CC1)CN(c1ncccn1)C2,40.4%
4,CN(C)c1ncc2nc(CCc3ccccc3)c(=O)n(-c3ccccc3)c2n1,23.6%
5,COc1ccc(Oc2ncc3nc(CCc4ccccc4)c(=O)n(C4CC4)c3n2)cc1,20.3%
6,CCNc1ncc2nc(-c3ccccc3)c(=O)n(Cc3cccc(OC)c3)c2n1,27%
7,O=c1c(-c2cc(F)cc(F)c2)nc2cnc(N3CCOCC3)nc2n1Cc1ccc(F)cc1,41.7%
8,OC[C@H]1O[C@@H](OC[C@H]2O[C@@H](O)[C@H](O)[C@@H](O)[C@@H]2O)[C@H](O)[C@@H](O)[C@@H]1O,-29.2%
9,COc1ccccc1CNc1ccnc(-c2c(C)noc2C)n1,24%
10,CN(C)c1ncc2nc(-c3cc(F)cc(F)c3)c(=O)n(CCc3ccccc3)c2n1,32.4%
11,CN(C)C(=O)c1ccc(-c2ccc3ncnc(NCCN4CCOCC4)c3c2)cc1,41.1%
12,CC(C)NC(=O)N1CCCC2(CCN(C(=O)c3csnn3)CC2)C1,32.6%
13,Cc1ccccc1-c1ccc2ncnc(-n3ccnc3)c2c1,26.9%
14,COc1ccc(CNc2ccnc(-c3cccc(C#N)c3)n2)c(OC)c1,6.55%
15,CNc1ncnc2ccc(-c3cccc(OC)c3)cc12,-43.4%
16,N#CCCn1c(=O)c(CCc2ccccc2)nc2cnc(Oc3cccc(Cl)c3)nc21,15.6%
17,COc1cc(OC)c2c(OC)c(-c3ccc4c(c3)OCO4)c(=O)oc2c1,1.72%
18,COc1ccccc1-c1nc(NCCN2CCOCC2)c2ccccc2n1,45.2%
19,COc1ccccc1CNc1ncncc1-c1cccc(NS(C)(=O)=O)c1,51.8%
20,CCNc1ncc2nc(-c3cc(F)cc(F)c3)c(=O)n(CCOC)c2n1,38.5%
